{
  "source": "PubChem BioAssay AID1963576",
  "about": "(National Center for Advancing Translational Sciences (NCATS), 2024)",
  "note": "In all, about 46,000 compounds went through this assay and about 60 (0.1%) were called active. Roughly 3% stayed inconclusive and do not appear here. Calls follow the shape of the dose curve; as a rule, active = well fitted inhibition curve with a large enough effect; inconclusive = small, poorly fitted or top-dose-only effect; inactive = no such curve, though single readings can be large or run the other way. Some of the results follow.",
  "data": [
    {"experiment": "Primary qHTS assay for Inhibitors of ovarian cancer metastasis using an organotypic tumor microenvironment (TME) model; also: nearly all actives have a fitted effect of over 65% in size;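 as to activity change, negative = inhibition: plate controls were DMSO wells for no effect and tomatine positive control wells for full effect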.", "settings": "SKOV3ip1-GFP adhesion/invasion on 3D omental model, fluorescence; series mostly up to 45.8 µM; activity change, negative = inhibition: at the top concentration", "how_it_was_run": "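Adhesion/invasion was scored as fixed GFP-labeled SKOV3ip1 cell counts (488/509 nm), normalized to DMSO and tomatine controls. Cancer cells in serum-free medium, with four compound doses (0.36-46 umol/L), sat 2 hr at RT then 16 hr at 37 C on a 48 hr fibroblast/mesothelial/ECM culture.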", "values": [
      {"compound": "CCc1ccccc1NC(=O)c1cccn(Cc2ccccc2F)c1=O", "activity change, negative = inhibition": "inactive: 13.3%"},
      {"compound": "O=C(Nc1ccncc1)C(=O)c1cn(Cc2ccc(Cl)cc2)c2ccccc12", "activity change, negative = inhibition": "inactive: -2.37%"},
      {"compound": "O=C(Nc1ccc2c(c1)OCCO2)c1cccn(Cc2cccc(F)c2)c1=O", "activity change, negative = inhibition": "inactive: 0.523%"},
      {"compound": "C#CC1(O)CCC2C3CCC4=CC(=O)CCC4(C)C3CCC21C", "note": "(stereo not drawn)", "activity change, negative = inhibition": "inactive: -3.89%"},
      {"compound": "COc1ccc(-c2nc(CN3C(=O)CN=C(c4ccccc4)c4cc(Cl)ccc43)c(C)o2)cc1", "activity change, negative = inhibition": "inactive: 0.656%"},
      {"compound": "CCOc1ccc2nc(NC(=O)c3cccn(Cc4ccc(Cl)cc4)c3=O)sc2c1", "outcome": "inactive"},
      {"compound": "COc1cccc(/C=C/c2nc3ccccc3c(=O)n2-c2ccc(Cl)cc2)c1OC", "activity change, negative = inhibition": "inactive: -20.9%"},
      {"compound": "O=C(N[C@H]1CN2CCC1CC2)c1ccc(Cl)cc1", "activity change, negative = inhibition": "inactive: -13.2%"},
      {"compound": "CCCC12CN3CC(CCC)(CN(C1)C3c1ccccn1)C2=O", "note": "(stereo not drawn)", "activity change, negative = inhibition": "inactive: 1.74%"},
      {"compound": "CC(C)[C@H]1C(=O)N[C@H](CO)Cc2c[nH]c3cccc(c23)N1C", "activity change, negative = inhibition": "inactive: 2.09%"},
      {"compound": "COc1ccc(C)cc1NC(=O)c1cccn(Cc2cccc([N+](=O)[O-])c2)c1=O", "activity change, negative = inhibition": "inactive: -2.92%"},
      {"compound": "Cc1ccc(-n2c(/C=C/c3cccs3)nc3ccccc3c2=O)cc1C", "outcome": "inactive"},
      {"compound": "CC(C)CC(N(C)C)C1(c2ccc(Cl)cc2)CCC1", "note": "(stereo not drawn)", "activity change, negative = inhibition": "inactive: -0.698%"},
      {"compound": "CCOC(=O)c1ccc(NC(=O)c2cccn(Cc3ccc(C)cc3)c2=O)cc1", "activity change, negative = inhibition": "inactive: 6.9%"},
      {"compound": "C[C@]12Cc3cn[nH]c3C[C@@H]1CC[C@@H]1[C@H]2CC[C@@]2(C)[C@H]1CC[C@]2(C)O", "activity change, negative = inhibition": "inactive: -6.09%"},
      {"compound": "Cc1ccc(Cn2cccc(C(=O)Nc3nnc(C)s3)c2=O)cc1", "activity change, negative = inhibition": "inactive: 2.87%"},
      {"compound": "CCN(CC)C(=O)c1ccc(NC(=O)Cn2nc(-c3ccc(C)cc3)c3ccccc3c2=O)cc1", "activity change, negative = inhibition": "inactive: 5.81%"},
      {"compound": "C[C@]12COC(=O)C[C@@H]1CC[C@@H]1[C@H]2CC[C@@]2(C)[C@H]1CC[C@]2(C)O", "activity change, negative = inhibition": "inactive: -1.01%"},
      {"compound": "O=c1[nH]c2ccccc2n1CCCN1CCC(n2c(=O)[nH]c3cc(Cl)ccc32)CC1", "activity change, negative = inhibition": "inactive: 13.7%"},
      {"compound": "Cc1ccc(NC(=O)N(Cc2ccc3c(c2)OCO3)C2CCN(Cc3ccccc3)CC2)cc1Cl", "activity change, negative = inhibition": "inactive: -8.8%"},
      {"compound": "N#Cc1cccc(NC(=O)CSc2nc3c(cc2C#N)N2CCC3CC2)c1", "activity change, negative = inhibition": "inactive: 1.41%"},
      {"compound": "Cc1nnc(NC(=O)c2cccn(Cc3cccc([N+](=O)[O-])c3)c2=O)s1", "activity change, negative = inhibition": "inactive: 0.613%"},
      {"compound": "COc1ccc(NC(C)=O)cc1NC(=O)c1cccn(Cc2ccccc2)c1=O", "activity change, negative = inhibition": "inactive: -8.24%"},
      {"compound": "O=S(=O)(CC1CS1)c1ccc(Oc2ccccc2)cc1", "note": "(stereo not drawn)", "activity change, negative = inhibition": "inactive: -14.8%"},
      {"compound": "CCOc1ccccc1CN(CCc1ccc2c(c1)OCO2)Cc1ccc(CC)cc1", "outcome": "inactive"},
      {"compound": "CSc1ncc(C(=O)Nc2ccc(Cl)cc2C(=O)c2ccccc2)c(C)n1", "activity change, negative = inhibition": "inactive: 0.652%"},
      {"compound": "Cc1ccccc1-n1c(/C=C/c2ccc(O)cc2)nc2ccccc2c1=O", "activity change, negative = inhibition": "inactive: -9.32%"},
      {"compound": "CC(C)(C)c1ccc(OCC(=O)Nc2ccc(Cl)cc2C(=O)c2ccccc2)cc1", "activity change, negative = inhibition": "inactive: -4.28%"},
      {"compound": "CC(=O)N(C)c1cccc(-c2ccnc3c(C(=O)c4cccs4)cnn23)c1", "activity change, negative = inhibition": "inactive: -8.26%"},
      {"compound": "O=c1c2ccccc2nc(/C=C/c2ccccc2O)n1-c1ccc(Br)cc1", "activity change, negative = inhibition": "inactive: -13.4%"},
      {"compound": "Cc1ccc(-n2nc(C)c3c2NC(=O)CSC3c2ccc(O)cc2)cc1Cl", "note": "(stereo not drawn)", "outcome": "inactive"},
      {"compound": "CCCC12CN3CC(C)(CN(C1)C3c1ccccn1)C2=O", "note": "(stereo not drawn)", "activity change, negative = inhibition": "inactive: -12.9%"},
      {"compound": "O=C1CC(c2ccc(F)cc2)c2c(c3ccccc3oc2=O)O1", "note": "(stereo not drawn)", "outcome": "inactive"},
      {"compound": "COc1ccc(CCNCc2ccc3c(c2)n(C)c(=O)n3C)cc1", "activity change, negative = inhibition": "inactive: 3.57%"},
      {"compound": "COCC1(CO)C(=O)C2CCN1CC2", "note": "(stereo not drawn)", "activity change, negative = inhibition": "inactive: -7.01%"},
      {"compound": "O=C(Nc1ccc(Br)cc1C(=O)c1ccccc1Cl)c1ccccc1F", "activity change, negative = inhibition": "inactive: -5.61%"},
      {"compound": "CC(C)(C)[C@]1(O)C[C@@H]2OC(=O)C[C@@]23C(=O)O[C@@H]2OC(=O)[C@H](O)C213", "note": "(stereo partly drawn)", "activity change, negative = inhibition": "inactive: -0.991%"},
      {"compound": "N#Cc1cc2c(nc1SCC(=O)Nc1ccc(F)c(Cl)c1)C1CCN2CC1", "outcome": "inactive"},
      {"compound": "N#Cc1cccc(NC(=O)c2sc3nc4c(cc3c2N)N2CCC4CC2)c1", "activity change, negative = inhibition": "inactive: -22.6%"},
      {"compound": "Cc1oc(-c2ccccc2Cl)nc1CN1C(=O)CN=C(c2ccccc2)c2cc(Cl)ccc21", "activity change, negative = inhibition": "inactive: 0.984%"},
      {"compound": "COc1ccc(NC(=O)CCc2nc(C3=CCN(Cc4cccc(Cl)c4)CC3)no2)cc1OC", "outcome": "inactive"},
      {"compound": "CCOc1ccc(NC(=O)c2cccn(Cc3cccc(Cl)c3)c2=O)cc1", "outcome": "inactive"},
      {"compound": "N#Cc1cc([N+](=O)[O-])ccc1NC(=O)c1cccn(Cc2cccc(F)c2)c1=O", "activity change, negative = inhibition": "inactive: -1.39%"},
      {"compound": "O=C(Nc1ccc2c(c1)OCCO2)c1cccn(Cc2cccc([N+](=O)[O-])c2)c1=O", "activity change, negative = inhibition": "inactive: -4.78%"},
      {"compound": "CCOc1ccc(-n2c(/C=C/c3ccccc3)nc3ccccc3c2=O)cc1", "activity change, negative = inhibition": "inactive: -4.03%"},
      {"compound": "N#Cc1cc2c(nc1SCC(=O)Nc1cccc(F)c1)C1CCN2CC1", "outcome": "inactive"},
      {"compound": "COC1=C[C@@H]2[C@@H]3Cc4ccc(OC)c(O)c4[C@]2(CCN3C)CC1=O", "activity change, negative = inhibition": "inactive: 24.4%"},
      {"compound": "C[C@]12CC[C@H]3[C@@H](CCC4=CC(=O)CC[C@@]43C)[C@H]1CC[C@H]2O", "activity change, negative = inhibition": "inactive: -9.27%"}
    ]}
  ]
}
